Some of the results follow. At the low end of the ranking, values are background and their order means little. Measured with an extract: partners may take part in the binding.
The sequences below were run against T1, HNF4alpha2 (COS-7 nuclear extract) (UniProt P41235) (assay: protein-binding microarray). Conditions: COS-7 nuclear extract on double-stranded Agilent 4x180k PBM; binding buffer, salt, pH and temperature not given; high values mean tight binding; double strand, one strand shown; sequences stand for … in …GCCTAGGGAGATTAGAGTATCGGTCGA.
T1 sequence: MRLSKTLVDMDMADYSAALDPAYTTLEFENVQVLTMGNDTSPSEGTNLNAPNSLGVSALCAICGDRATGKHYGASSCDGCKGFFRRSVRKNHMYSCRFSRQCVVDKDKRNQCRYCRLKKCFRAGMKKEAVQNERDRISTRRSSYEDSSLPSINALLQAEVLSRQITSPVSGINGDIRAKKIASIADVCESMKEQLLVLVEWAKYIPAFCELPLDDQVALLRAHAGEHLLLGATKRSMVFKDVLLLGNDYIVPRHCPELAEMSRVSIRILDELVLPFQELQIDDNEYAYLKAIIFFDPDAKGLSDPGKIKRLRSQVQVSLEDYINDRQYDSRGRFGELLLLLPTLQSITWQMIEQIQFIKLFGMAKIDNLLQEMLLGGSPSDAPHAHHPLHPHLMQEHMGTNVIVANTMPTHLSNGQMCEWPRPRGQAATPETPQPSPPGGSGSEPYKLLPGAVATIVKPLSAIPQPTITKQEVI

| Sequence | binding signal (log2 normalized intensity) |
| --- | --- |
| GTGAGATGGCTCAGCCTGGCTGTGTAGACA | -1.01 |
| GAGATAACTGGGGGCATAGCCCATGCAAAT | -1.16 |
| CGGGAGGGAGAGAAGGACATCTATCATTTT | -0.616 |
| AATGGATCCACTCAGTATGGCAACCTTTGT | 3.54 |
| CAAGGGCAACTCTAATAGCACAGATCACAT | -0.966 |
| GAGCTCCTTGTGAGCAGGATTATAGTTTAT | 0.466 |
| ACAGTTAGAAGTACTAGATTTGGAACTCAG | -0.99 |
| CTTGGCACTTAGCACAAGTGACTATTCTGG | 0.959 |
| CAAGGCCTACCTTGGGTTCTCACTATCACC | -1.08 |
| CAGGGTTCACATAGCCACCAGGGCCTCTGA | -1.21 |
| GTGTGTATGAAAGGCCACCAGGTGGAGTCT | 0.616 |
| TAAAGTCACAAAGGTGGAACTCAAGATAGT | 0.0624 |
| CTCGAGATAACCCACCTCCGGCCGGGAAGA | -0.939 |
| GAAAGGAAGATGCACATTCCCTCCAGCAGG | -1.06 |
| CTGGTTGACACTCGAGGATCAGAGACACGA | -1.14 |
| CAGCTGCAGGTGTGGGGGCGGCAGGAGCCA | -1.15 |
| CAGGAATGCCTTTTCTTTCATGTTGTTTAG | 1.94 |
| ATAAGGGAGTTTCAGAGGACTGCCCAGCTG | -1.25 |
| AGACAACCTGGGTGTAGGTGCTGCACCTTG | 1.31 |
| TACTGTCTTTTTGCCACTAGGGGTCACTGT | 3.8 |
| TCTGTTTGATTCCATGCTGATAATGGAATT | 0.756 |
| AAGGTTAAGCCATTGGGCAATCCAATGTCT | -1.12 |
| AATTTTCTCTGTATACTTGTCTTATCAGCA | 0.598 |
| GATGTGGAAATCTGGACTCAGCAGAACTTT | 0.903 |
| GTATTGCTCAATGTCAAACACACTGTAACA | -1.13 |

| Sequence | binding signal (log2 normalized intensity) |
| --- | --- |
| TTCAAAGGTTAAGACTTTGAATCAGTAAAT | 1.21 |
| TTGGTGGAATCTGAACTTTTGGCTCCCTGG | 0.743 |
| AGACAGTCACTCCCACCCTTCCTGTTATGT | 2.11 |
| GGATGGGGCCTGGGAGATAAGGGTTCAGAT | 0.715 |
| ATAAGGTAGGCACGTAAATAAGGATAAAGT | -0.018 |
| AGGGCAAAGGTTAGCTTGGACAGAGTTTGT | 3.44 |
| AGCTCCTGGGCCAAAGGGCATTCTGGAGTT | 2.86 |
| AGTTGAGATTTATTCCCAGGTTCCAAAGGT | 2.07 |
| TCAATGATACCATCAGATACCTACTCTGCT | -1.12 |
| AGTGGGGTGGGGGCGAGAGAGTTCTATGGG | -1.22 |
| GATGGCAGCTTCATTCCAGCCCCATTCTGT | -0.167 |
| GGTGAGTCTTTGCCCCTGGACTTTGAATTT | 4.94 |
| GGGACGCGACCTCCGGGAAAGCTATCCCGG | -1.18 |
| TGGTTTATCTGTTGTCAAACCCACATTCTT | 0.626 |
| GGTCCGCAGGGCTGCCTCGCTTCCGGGTGG | -1.13 |
| CTCGGCCTCATGGGCGATCCCGAAAGCCGG | -1.23 |
| ACCCCTGATCTACAAGGTCCATAAAACCAG | -1.11 |
| CACAAACATTCCAGTGGTCCCTGGAGATAA | -0.698 |
| CCCCCGCAACTATTTATGAGTCTTGGGAAT | 0.969 |
| TTTTGCCTCCGCTCCGCCGGACCGGCCAAA | -1.12 |
| GCAGGTTCTCAGAAACGCCTGGCGCTTATC | -1.14 |
| CATACCAGGTGTAAAGTCTGGCATACAGGG | 0.753 |
| AAAGATTCTTAGAGAGTTGGGCAAGACTCG | -1.02 |
| AGGCCACTCCTGATAGCTAGAGAGTTCAAG | -1.13 |
| ACCTTTATCTGATCAGAAATGTTTGGAATT | 1.4 |

| Sequence | binding signal (log2 normalized intensity) |
| --- | --- |
| CTGCCTCCCTGTCAGCTTCACTGATAGCGA | -1.15 |
| CCCCTGCATGAACCTTTGCTCCCTGGGAAC | 3.75 |
| CTGTTTACCCACTTGGGGTTCTTGGATCCT | 0.913 |
| AAGTCTCAGAAGCTGGGAGACCACTGGTGT | 0.973 |
| ATGGTGTTTGCTTTGTGAAGGCTTATCTGC | 0.554 |
| TTATCTCCAAGACCCTTCATAGCTTACTTG | -0.711 |
| TTTGCCCCACTCTCCTCTGCCACTGTATCA | 2.33 |
| TTCCACAAGGTCCCATGGCTAATCTGTGAC | -0.772 |
| TCAAATCTAAACCTAGCAGCCTGCCACCCA | -1.07 |
| AATGTACAAAGGTCAACGGCACAAGGAGAT | 4.29 |
| TCAGAGGAATGTCTGACCAACCTGTCCAAA | 0.136 |
| GATAAGATTTTAGAAGTCACTCCTTCCTCA | -1.05 |
| GAGTGGGACAAAGTTCCCCGGGCAGCTGTG | -1.07 |
| CCACTGGAGTCTTGTTTGTCAAGTTTGGTA | 1.81 |
| CGCCCGCGCTGCTCGCAAGCAGAACCTTGG | -1.18 |
| TATCTCACTCCCACACTGGTAACCTTTAGT | 2.25 |
| GAGGCAGCAAGGTCAAAGTGCGTCCTGTGG | 3.92 |
| AAGGAGAACTGAGTAGGAGAATGTTAATGA | -0.408 |
| TCTTGGCCAACAACTAGGGCAAAGGTTAGC | 4.69 |
| CTTTTGAGTTTCTACCATAGACCCTGTTGG | 0.733 |
| ACTTAGCCCTTGTCTTCCTCTCTGAAGGAT | 0.995 |
| CACATGGCCGTAAAGATAAGAACGCTAGAC | -1.12 |
| GAAAACCCGGAGCGGAGCATCCCTCGGGCC | -1.11 |
| ATTAACCCTTTAGTGCCTGGATCTTGGAAC | 1.65 |
| TGTGCCTCTTAGTGAAGGATGGGGACCTTG | 1.33 |

| Sequence | binding signal (log2 normalized intensity) |
| --- | --- |
| GTGTGTCAACAGAGTGCTTAATCTCTGCTC | 0.273 |
| ATCCAGAGTGGGACAAAGTTCCCCGGGCAG | -0.737 |
| AGAGAGTCTGGCTGACTAACAAGCTGCCAA | -1.19 |
| AGAGCTCAGAAGCCACCAGTGCAAATATAA | -0.972 |
| ATTGTGATTCCTGTGATACCTTCTTTGCCT | 1.13 |
| TGCATCAGTGCTGACCTACCTGACCTGGCA | 1.28 |
| AAACTTCACAATGGGCCCCAGTAAAAACAG | -0.952 |
| CATCATGCCCTTTGGCCCCCAGAGCCCCGT | 6 |
| TTCTTCCCTCACTTACATCCTCAGGTAAAG | 1.8 |
| TGGATGTTGAACCTCTGTCCTTGGCCTCAC | 1.71 |
| TGGAGGGCAGTGGATGGGGGCGTTCCCCGA | -0.0239 |
| ACCTACGGGTCAAGGGTTCAGGGCTCAGTT | 2.15 |
| CCATGCTCTTTGGCCTGGCATTTGAGACTA | -0.793 |
| GCGCGGACATAAAATTAAAGCGGACGGGCT | -1.09 |
| AGATTGCATCTGTTTTTATTTCCCCTTTCT | 2.05 |
| TTTGTGAGAGGTCAATGTCCAGTTCCGCTG | 4.67 |
| AGGGGCTATTTCTGACCTTTGCACCAGAGA | 6.87 |
| CCTCTGGCCACCAGTTATTCATGTCCCTAC | -0.784 |
| TTGAGCTGCATATTTGAGTAGGATTTTGCT | -1.05 |
| AGCCTGTGTGCTGAGAGTTGGAAAATGTCG | -0.147 |
| CCAAATGACGCTTTAAGTAGGCACTATTAT | -0.879 |
| GGCCAGGTGGGCTGCTCCCAGTGCCCTTTG | 3.73 |
| TGATATTGGGTGAGTGTTAGAGCACCCTCT | -0.244 |
| ATGTTCAGGATTACTATAGGTTCTACTCTC | -0.807 |
| CAAAACTTCACCTCCCCTAGACTTACTATT | 1.26 |

| Sequence | binding signal (log2 normalized intensity) |
| --- | --- |
| AGGTTAAGACTTTGAATCAGTAAATATTTG | 0.901 |
| CACGGTGGACATTGTCCAAGGGCTGTAGCA | 0.404 |
| GGGTTCAGATGAAAGGCGGCAACTTCTTCA | -1.06 |
| TTCTTTTATCACTTTGTAATGTCCCTCTTT | 2.03 |
| ACCCATGTTTGCCCTTGATAAGAGCTGCTC | 0.457 |
| TCTCTGCTGGGCAGAGGGACAACTGAGTTA | 0.618 |
| AAGCAATAGGGTTCGGTGCAATAACACCTA | -1.01 |
| TCACGGCAGCTTGTACCCTTCTTTCCACCC | 1.54 |
| AAGGCTTTGAAGTCTGGTGGCAAGTACCCT | -0.842 |
| AGGTGGTTCACAAATAGCAGAAAATCCAGG | -1.13 |
| AGAATTGAAGAGAGTTAGGGCCTTGCTATG | -0.979 |
| ACAGCTCTTGTGCTCTGGACATACCTCTAA | -1.13 |
| ACCTGGGCAACAGGGAGCCCTTATATCCAC | -1.12 |
| CAAAGGACCAAAAGATATTTGCTGCTGACA | -1.15 |
| GGAATGTGGATGCTGGAATGAGGGAGGCAG | -0.881 |
| ACTACTAACCGAAAGTCTGACCCTTGACCA | 6.42 |
| CTGAACTTTAGCTCACTGTTGAACATTAAC | 1.19 |
| CCTTCTTGGCAAGTTAATGTGGCCTAATGT | 1.85 |
| CCAATGTTTACCAGCTCTGTTGCTTATCTT | 1.05 |
| ACAGCCTCTAAGCACGGCCAGGATTAACCA | -1.09 |
| AGGACATAGTCCTCTGCATATTTCTGCTAC | -1.08 |
| CCTTTTATTTTCTTATCTGCCTAGGCATTT | 1.33 |
| TGAAATTTGTATCTTGGGTTAGGCCTTTAG | 0.964 |
| CCACTATTCATAAAGTTCTCTGGCAAATAT | 1.24 |
| TGACAAAGTCCATCTGGGCAAGGTGTCAAC | 1.63 |

| Sequence | binding signal (log2 normalized intensity) |
| --- | --- |
| TTCACCCGCGCCCAGCGGTTCCGGGCGGCA | -1.18 |
| ACTCTACAACAAAGGAAATGAAGCAACACT | -1.13 |
| TGCGAGCGCCTTGCGAGCGTACGCAGGGCG | -1.17 |
| CATGCAATCACACTAATCTGTCAGAAAACC | -0.731 |
| GCAGAAGGGATGGGAACCGACCTTTGGTTC | 5.13 |
| GAAGGACACTTAGAGATAAGGTAACAGGCC | -1.02 |
| AATGTGTGTTCTGCTGCCATTGGATGGAAT | 1.31 |
| CAAAAACAATCAGGGGTTAGGGTGAAGTAA | -0.187 |
| CTTAGTGATTAGAAGAAAAGAGTTGCTCAA | -1.07 |
| AAGGATCAAGGACCTGCTCTGGGGCTACCT | -0.978 |
| ATCATTCATGGGCCAAAGTTTGTTTCTTAT | 1.11 |
| TTCTAAAGGCACAATCAGGGCTAAAGTCAG | -0.709 |
| CTCCTCATTCCTTTCTAATCTCAAAGTGTC | 1.98 |
| GTCAACAAGATTCCTTGAGCATTCCAAAAA | -0.715 |
| AAGAGGCCCATCTCACACATAATGATACCA | -0.824 |
| TTGGGATCAGACACGTGGGACCATGAGTAC | 1.41 |
| GACCAGGTTGTGAGGGAGGGCACAGGCAAC | -0.298 |
| CAGTTGGCCACCTTTGGCCGAAACTCAGTG | 0.83 |
| ATAGCCACCAGGGCCTCTGAGATAAGGGTT | -1.17 |
| TAAATCTCTAGTCCCAGCCTAGGCCTTTGT | 0.149 |

Reference: PMC10726135
